The series relates to ATP. As to the kind of experiment: switch fluorescence ratio, 500 uM ATP over buffer (Cy3 cluster intensity, sum of 5 cycles each) (fold (ratio)); higher = stronger signal-on switching upon ATP binding; sequences stand for … in TCGTCGGCAGCGTCAGATGTGTATAAGAGACAGTTTTTTTTTTTTTTTTTTTTTTTTT…TC. The following applies: aptamer strand: ATP DNA aptamer (quencher-CACCTGGGGGAGTATTGCGGAGGAAGG + anchor), 100 nM annealed; ATP concentration: 500 uM; one replicate. In a few lines: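 Clusters with intensities outside 100-1000 RFU were excluded. The remaining Cy3-labelled switching-strand clusters on a modified Illumina MiSeq flow-cell had been annealed to 100 nM quencher-labelled ATP aptamer and imaged in selection buffer, then after 15 min with 500 uM ATP at 22 °C, for five cycles separated by NaOH stripping and re-annealing. The fluorescence ratio, averaged per switch-domain sequence, is each cluster's summed target-cycle Cy3 intensity over its summed buffer-cycle Cy3 intensity.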

Sequences with one replicate were seen in a single cluster, so their values are uncertain.
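Further: ATP exposure 15 min at 22 °C before imaging.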

As for GAAGTAAGC, the switch fluorescence ratio was 1.22. The figure for AACGTCCCAG is 1.08; for GTTGGGTGTT it is 0.998; for TAAGAGCTCG it is 1.42. For ACGAAAGGCG, the switch fluorescence ratio was 1.02. The same measure for GTGCGGAGTA: 1.01; for AGGAATTGG: 1.02; for CTTTAGTGCT: 1.03.

Turning to TAAGTAAGCT, the switch fluorescence ratio came out at 1.07. On to TGTATTCCCA, for which the switch fluorescence ratio came to 1.01.

Turning to TCGTACTGCG, the switch fluorescence ratio was found to be 1.04. The same measure for TTATCAGAAT: 1.04; for CTGACCCTCG: 1.03; for GCCCACAAGG: 1.11. Take GAATATGAGG: the switch fluorescence ratio stood at 0.988.

On to CTTAGCTCGA, for which the switch fluorescence ratio is 1.05.

For the sequence TATAGGGATC, the switch fluorescence ratio came out at 1.02. As for TTGGCGGTGC, the switch fluorescence ratio was 0.997. Consider CTTAAGATAT, for which the switch fluorescence ratio was determined as 1.02. As to AAAAACCTCA, the switch fluorescence ratio worked out at 1.2. AAGTTTAGA: the switch fluorescence ratio is 1.02.

Turning to GCACGTTTCC, the switch fluorescence ratio came out at 1.05. In the case of AACGCAGGCT, the switch fluorescence ratio worked out at 0.995. The figure for TTCTGATTAG is 0.991. Regarding GTCTACATGT, the switch fluorescence ratio is 1.02.

For GCGGTGGACT, the switch fluorescence ratio was 1.01. Regarding TGGAAGCTGA, the switch fluorescence ratio came out at 0.994. The same measure for GATGCTTGTC: 1.02; for GGCTAATTGA: 0.964; for GAGTTTGACT: 0.979. Consider ATGAGGCGGC, for which the switch fluorescence ratio came out at 1.06. As to CACGCCTCAG, the switch fluorescence ratio was 1.02. The same measure for ACCCCCGCGT: 1.48. The figure for GGCTCTGCG is 1; for CATATAAAAG it is 0.994. TAGTACTTTT: the switch fluorescence ratio was determined as 0.988.

Regarding CTTAGCACGG, the switch fluorescence ratio came out at 1.02.

On to AGACAAGGAG, for which the switch fluorescence ratio was found to be 0.929.

TTCTCATTAA: the switch fluorescence ratio is 0.994. Take GGATTCCGCA: the switch fluorescence ratio is 2.73.

With AGGCGTTGA, the switch fluorescence ratio was found to be 1.01.

On to ATCATCTGCA, for which the switch fluorescence ratio was found to be 1.24. CAACCACGTC: the switch fluorescence ratio is 1.15. As to TGATGGCGCA, the switch fluorescence ratio stood at 0.979.

Take GGCGGACATG: the switch fluorescence ratio was 1.02. With GCATGCTTCG, the switch fluorescence ratio was found to be 1.

With TGTGAGAGAA, the switch fluorescence ratio was 1.03. Take GAATATGGGC: the switch fluorescence ratio was found to be 1.02. GAACCCCGTC: the switch fluorescence ratio is 1.21. Consider CCAAGGCCGT, for which the switch fluorescence ratio is 1.02. Turning to ATTGGCAAAC, the switch fluorescence ratio was determined as 1.65.

On to TCGGACGAGG, for which the switch fluorescence ratio came to 1.01. The same measure for CTAGGTCGAT: 1; for GAGGATAGGC: 0.96; for CGACTATTCG: 1.04. Regarding CCTATAGGGT, the switch fluorescence ratio worked out at 0.968. Regarding TTACACTATT, the switch fluorescence ratio came out at 1.13. Consider AATTAGTCCT, for which the switch fluorescence ratio is 1.01. Consider GTTAGCCTGC, for which the switch fluorescence ratio was found to be 1.01. On to GAGGGTAGGC, for which the switch fluorescence ratio amounted to 1.01. With GTATCCCAGA, the switch fluorescence ratio is 1.02. As to CAAAAGACCC, the switch fluorescence ratio amounted to 1.15. As to GACCTTCGTG, the switch fluorescence ratio came to 0.993. As to TCACCGCATT, the switch fluorescence ratio amounted to 2.47. For AGGTATAGGT, the switch fluorescence ratio amounted to 0.951. The same measure for AACCCGTAGG: 1.07.

For TTGACTACCA, the switch fluorescence ratio was 1.16.

On to GCCCACCACG, for which the switch fluorescence ratio is 1.03. Take CTTCGTCCAT: the switch fluorescence ratio came out at 1.29.

With TTGGGAGTCA, the switch fluorescence ratio came out at 0.99. Turning to GGCGCAGCGG, the switch fluorescence ratio was found to be 1.03. Regarding AAGGTAAAGG, the switch fluorescence ratio was 0.99. For TTCGATATGC, the switch fluorescence ratio turned out to be 1.06. The figure for TTGTACGCGC is 1.11. In the case of TAGGGGGTA, the switch fluorescence ratio came to 0.995. Take ATGTCACGCC: the switch fluorescence ratio turned out to be 1.1. For the sequence GTCCGGACAT, the switch fluorescence ratio amounted to 0.949.

For ATTGTGCAGA, the switch fluorescence ratio amounted to 1.04.

In the case of CTTAAACTA, the switch fluorescence ratio is 0.973. TTCGGGCAGT: the switch fluorescence ratio stood at 1.02. Turning to GAGCGATTCA, the switch fluorescence ratio was 1.04. Consider CATGCGGGTC, for which the switch fluorescence ratio turned out to be 1.06. Take TAGCATCTAG: the switch fluorescence ratio was found to be 0.969.

As for CGGAGCGTAA, the switch fluorescence ratio was determined as 4.22. Regarding CCATATTTCT, the switch fluorescence ratio was 0.967. As to GAACGGAATC, the switch fluorescence ratio came out at 3.97. Take TTGTCCTTTT: the switch fluorescence ratio is 0.987.

On to GTGCAGTGGC, for which the switch fluorescence ratio came out at 1.02. As for AGGTAAAAGT, the switch fluorescence ratio came out at 0.975. The same measure for ACCTAGGTCC: 1.08; for GCGCGGAAGT: 1.02. The figure for TGAATAGTAG is 1.01; for CGACAGTTAT it is 1.06; for CACAACCGAT it is 1.06. In the case of AAATTTAGGG, the switch fluorescence ratio was determined as 0.984. CCCGGGTCGT: the switch fluorescence ratio is 1.18. Take GACGGGGCGA: the switch fluorescence ratio came to 1.08.

With TAGACGCCAG, the switch fluorescence ratio amounted to 0.909. The figure for AGATTAATTC is 1.01; for CCAGCCGAGC it is 1.1. Consider TTTGTTAAGA, for which the switch fluorescence ratio came to 1.05. With TTTAATCGGA, the switch fluorescence ratio was 0.964. For the sequence TAAACCCATG, the switch fluorescence ratio stood at 1.01. The figure for GAGCGGGGCC is 0.968; for TAGGTCGCAC it is 1.01; for TTGTGTCCAC it is 0.984. For TTCGCGGAGA, the switch fluorescence ratio came out at 1.02. The same measure for ACTACGGCGT: 1.08. Consider TTCAAGCAAA, for which the switch fluorescence ratio worked out at 0.977. Consider ACGCAGGACC, for which the switch fluorescence ratio worked out at 2.08. As for CATCGGGCCC, the switch fluorescence ratio worked out at 0.988. For the sequence ACAATCGGTC, the switch fluorescence ratio was 1.05.

Regarding CGCAGTCGAG, the switch fluorescence ratio came out at 1.75. As to TGGTCAAAA, the switch fluorescence ratio came out at 0.993.

Take GCCTGGAATA: the switch fluorescence ratio was found to be 1.06. Regarding GGATCTGCGG, the switch fluorescence ratio was 1. In the case of TTGGATAAGG, the switch fluorescence ratio was 0.959. As for CGTGGTTCTG, the switch fluorescence ratio came out at 1. Take TTCCTGGCTG: the switch fluorescence ratio was found to be 1.05. Regarding TGAAGTCTAC, the switch fluorescence ratio came to 0.999.

(Values after the supplement of paper PMC10126150.)
